# Some of the results follow.
# Assays:
# Assay in all cases: glycan array binding signal (z-score within array); higher = stronger binding
# Settings in all cases: glycan notation: IUPAC condensed, linker removed
# [1] = target: Fuc(a1-2)Gal(b1-4)GlcNAc(b1-3)Gal(b1-4)GlcNAc(b1-3)Gal(b1-4)GlcNAc
# Summary of the method: (§1)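 The Consortium for Functional Glycomics database supplied 3228 glycan arrays, of which those lacking an available protein sequence were dropped. The binding signal, a within-array Z-score, was averaged across arrays of the same protein sequence and across linkers. Negative scores can be read as non-binding.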
# [2] = target: Fuc(a1-2)Gal(b1-4)GlcNAc(b1-3)GalNAc
# Summary of the method: as §1
# [3] = target: Fuc(a1-2)Gal(b1-4)GlcNAc(b1-3)[Fuc(a1-2)Gal(b1-4)GlcNAc(b1-6)]GalNAc
# Summary of the method: as §1
# [4] = target: Fuc(a1-2)Gal(b1-4)GlcNAc(b1-3)[Fuc(a1-3)[Gal(b1-4)]GlcNAc(b1-6)]Gal(b1-4)Glc
# Summary of the method: as §1
# [5] = target: Fuc(a1-2)Gal(b1-4)GlcNAc(b1-6)GalNAc
# Summary of the method: as §1
# [6] = target: Fuc(a1-2)Gal(b1-4)GlcNAc6S
# Summary of the method: as §1
# [7] = target: Fuc(a1-2)Gal(b1-4)[Fuc(a1-3)]GlcNAc
# Summary of the method: as §1
# [8] = target: Fuc(a1-2)Gal(b1-4)[Fuc(a1-3)]GlcNAc(b1-2)Man(a1-3)[Fuc(a1-2)Gal(b1-4)[Fuc(a1-3)]GlcNAc(b1-2)Man(a1-6)]Man(b1-4)GlcNAc(b1-4)[Fuc(a1-6)]GlcNAc
# Summary of the method: as §1
# [9] = target: Fuc(a1-2)Gal(b1-4)[Fuc(a1-3)]GlcNAc(b1-2)[Fuc(a1-2)Gal(b1-4)[Fuc(a1-3)]GlcNAc(b1-4)]Man(a1-3)[Fuc(a1-2)Gal(b1-4)[Fuc(a1-3)]GlcNAc(b1-2)Man(a1-6)]Man(b1-4)GlcNAc(b1-4)GlcNAc
# Summary of the method: as §1
# [10] = target: Fuc(a1-2)Gal(b1-4)[Fuc(a1-3)]GlcNAc(b1-3)Gal(b1-4)[Fuc(a1-3)]GlcNAc
# Summary of the method: as §1
# [11] = target: Fuc(a1-2)Gal(b1-4)[Fuc(a1-3)]GlcNAc(b1-3)Gal(b1-4)[Fuc(a1-3)]GlcNAc(b1-3)Gal(b1-4)[Fuc(a1-3)]GlcNAc
# Summary of the method: as §1
# [12] = target: Fuc(a1-2)Gal(b1-4)[Fuc(a1-3)]GlcNAc(b1-3)GalNAc
# Summary of the method: as §1
# [13] = target: Fuc(a1-2)Gal(b1-4)[Fuc(a1-3)]GlcNAc(b1-3)[Neu5Ac(a2-6)Gal(b1-4)GlcNAc(b1-6)]Gal(b1-4)Glc
# Summary of the method: as §1
# [14] = target: Fuc(a1-2)Gal3S(b1-4)GlcNAc
# Summary of the method: as §1
# [15] = target: Fuc(a1-2)Gal6S(b1-3)GlcNAc
# Summary of the method: as §1
# [16] = target: Fuc(a1-2)Gal6S(b1-3)GlcNAc6S
# Summary of the method: as §1
# Fuc(a1-2)Gal6S(b1-4)Glc = target: Fuc(a1-2)Gal6S(b1-4)Glc
# Summary of the method: as §1
# [17] = target: Fuc(a1-2)Gal6S(b1-4)Glc6S
# Summary of the method: as §1
# Fuc(a1-2)[Gal(a1-3)]Gal = target: Fuc(a1-2)[Gal(a1-3)]Gal
# Summary of the method: as §1
# [18] = target: Fuc(a1-2)[Gal(a1-3)]Gal(b1-3)GalNAc
# Summary of the method: as §1
# [19] = target: Fuc(a1-2)[Gal(a1-3)]Gal(b1-3)GalNAc(b1-3)Gal(a1-4)Gal(b1-4)Glc
# Summary of the method: as §1
# [20] = target: Fuc(a1-2)[Gal(a1-3)]Gal(b1-3)GlcNAc
# Summary of the method: as §1
# [21] = target: Fuc(a1-2)[Gal(a1-3)]Gal(b1-3)GlcNAc(b1-2)Man(a1-3)[Fuc(a1-2)[Gal(a1-3)]Gal(b1-3)GlcNAc(b1-2)Man(a1-6)]Man(b1-4)GlcNAc(b1-4)GlcNAc
# Summary of the method: as §1
# [22] = target: Fuc(a1-2)[Gal(a1-3)]Gal(b1-3)GlcNAc(b1-2)Man(a1-3)[Fuc(a1-2)[Gal(a1-3)]Gal(b1-3)GlcNAc(b1-2)Man(a1-6)]Man(b1-4)GlcNAc(b1-4)[Fuc(a1-6)]GlcNAc
# Summary of the method: as §1
# [23] = target: Fuc(a1-2)[Gal(a1-3)]Gal(b1-3)GlcNAc(b1-3)GalNAc
# Summary of the method: as §1
# [24] = target: Fuc(a1-2)[Gal(a1-3)]Gal(b1-3)GlcNAc(b1-6)GalNAc
# Summary of the method: as §1
# [25] = target: Fuc(a1-2)[Gal(a1-3)]Gal(b1-4)Glc
# Summary of the method: as §1
# [26] = target: Fuc(a1-2)[Gal(a1-3)]Gal(b1-4)GlcNAc
# Summary of the method: as §1
# [27] = target: Fuc(a1-2)[Gal(a1-3)]Gal(b1-4)GlcNAc(b1-2)Man
# Summary of the method: as §1
# [28] = target: Fuc(a1-2)[Gal(a1-3)]Gal(b1-4)GlcNAc(b1-2)Man(a1-3)[Fuc(a1-2)[Gal(a1-3)]Gal(b1-4)GlcNAc(b1-2)Man(a1-6)]Man(b1-4)GlcNAc(b1-4)GlcNAc
# Summary of the method: as §1
# [29] = target: Fuc(a1-2)[Gal(a1-3)]Gal(b1-4)GlcNAc(b1-2)Man(a1-3)[Fuc(a1-2)[Gal(a1-3)]Gal(b1-4)GlcNAc(b1-2)Man(a1-6)]Man(b1-4)GlcNAc(b1-4)[Fuc(a1-6)]GlcNAc
# Summary of the method: as §1
# [30] = target: Fuc(a1-2)[Gal(a1-3)]Gal(b1-4)GlcNAc(b1-3)GalNAc
# Summary of the method: as §1
# [31] = target: Fuc(a1-2)[Gal(a1-3)]Gal(b1-4)GlcNAc(b1-3)[Fuc(a1-2)[Gal(a1-3)]Gal(b1-4)GlcNAc(b1-6)]GalNAc
# Summary of the method: as §1
# [32] = target: Fuc(a1-2)[Gal(a1-3)]Gal(b1-4)GlcNAc(b1-6)GalNAc
# Summary of the method: as §1
# [33] = target: Fuc(a1-2)[Gal(a1-3)]Gal(b1-4)[Fuc(a1-3)]Glc
# Summary of the method: as §1
# [34] = target: Fuc(a1-2)[Gal(a1-3)]Gal(b1-4)[Fuc(a1-3)]GlcNAc
# Summary of the method: as §1
# [35] = target: Fuc(a1-2)[Gal(a1-3)]Gal(b1-4)[Fuc(a1-3)]GlcNAc(b1-3)GalNAc
# Summary of the method: as §1
# [36] = target: Fuc(a1-2)[Gal(a1-4)]Gal(b1-4)GlcNAc
# Summary of the method: as §1
# [37] = target: Fuc(a1-2)[GalNAc(a1-3)]Gal
# Summary of the method: as §1
# [38] = target: Fuc(a1-2)[GalNAc(a1-3)]Gal(b1-3)GalNAc(a1-3)[Fuc(a1-2)]Gal(b1-4)GlcNAc
# Summary of the method: as §1
# [39] = target: Fuc(a1-2)[GalNAc(a1-3)]Gal(b1-3)GalNAc(b1-3)Gal(a1-4)Gal(b1-4)Glc
# Summary of the method: as §1
# [40] = target: Fuc(a1-2)[GalNAc(a1-3)]Gal(b1-3)GlcNAc
# Summary of the method: as §1
# [41] = target: Fuc(a1-2)[GalNAc(a1-3)]Gal(b1-3)GlcNAc(b1-2)Man(a1-3)[Fuc(a1-2)[GalNAc(a1-3)]Gal(b1-3)GlcNAc(b1-2)Man(a1-6)]Man(b1-4)GlcNAc(b1-4)GlcNAc
# Summary of the method: as §1
# [42] = target: Fuc(a1-2)[GalNAc(a1-3)]Gal(b1-3)GlcNAc(b1-2)Man(a1-3)[Fuc(a1-2)[GalNAc(a1-3)]Gal(b1-3)GlcNAc(b1-2)Man(a1-6)]Man(b1-4)GlcNAc(b1-4)[Fuc(a1-6)]GlcNAc
# Summary of the method: as §1
# [43] = target: Fuc(a1-2)[GalNAc(a1-3)]Gal(b1-3)GlcNAc(b1-3)GalNAc
# Summary of the method: as §1
binder,measurement,setting,value
Clec49 (Caenorhabditis elegans) (protein) MTRLTLLLFGLLGAATAQTCNTGGIYNEQFNRCYQYFTAPAQFSFAEQQCNLLGGHLASVQNGQENALLQSNAANSFKRSNYSDYWIGATDLETSGTWKWTDPSVTFDYSNWQLGEPQSGSDCAIQDKGDGTWSAIGCTSYRPYVCVTPVIMTATCPPITTPIPTTCPTPAPCPIKQCVPSCDQGWTYFSPTDFCYRVYHGEKFNDAEASCVLLGGHLASIHSLTENTFVNNIASCGIKEGKYEHLAWIGMRKVGQDWVWTDGTPSDYFNWAPKQPDNPKKELCVQTAPDLSHDKWYENWNNLECNEVMRAYICKKASIHN,glycan array binding signal (z-score),[1],-0.191
same,glycan array binding signal (z-score),[2],-0.223
same,glycan array binding signal (z-score),[3],0.84
same,glycan array binding signal (z-score),[4],-0.313
same,glycan array binding signal (z-score),[5],-0.314
same,glycan array binding signal (z-score),[6],-0.737
same,glycan array binding signal (z-score),[7],-0.005
same,glycan array binding signal (z-score),[8],0.368
same,glycan array binding signal (z-score),[9],6.67
same,glycan array binding signal (z-score),[10],-0.045
same,glycan array binding signal (z-score),[11],-0.819
same,glycan array binding signal (z-score),[12],-0.242
same,glycan array binding signal (z-score),[13],-0.336
same,glycan array binding signal (z-score),[14],0.166
same,glycan array binding signal (z-score),[15],-0.543
same,glycan array binding signal (z-score),[16],1.29
same,glycan array binding signal (z-score),Fuc(a1-2)Gal6S(b1-4)Glc,-0.677
same,glycan array binding signal (z-score),[17],-0.875
same,glycan array binding signal (z-score),Fuc(a1-2)[Gal(a1-3)]Gal,-0.102
same,glycan array binding signal (z-score),[18],-0.431
same,glycan array binding signal (z-score),[19],0.061
same,glycan array binding signal (z-score),[20],-0.288
same,glycan array binding signal (z-score),[21],2.31
same,glycan array binding signal (z-score),[22],0.255
same,glycan array binding signal (z-score),[23],0.411
same,glycan array binding signal (z-score),[24],-0.167
same,glycan array binding signal (z-score),[25],0.094
same,glycan array binding signal (z-score),[26],0.248
same,glycan array binding signal (z-score),[27],-0.467
same,glycan array binding signal (z-score),[28],-0.065
same,glycan array binding signal (z-score),[29],-0.622
same,glycan array binding signal (z-score),[30],-0.585
same,glycan array binding signal (z-score),[31],0.013
same,glycan array binding signal (z-score),[32],-0.168
same,glycan array binding signal (z-score),[33],-0.454
same,glycan array binding signal (z-score),[34],-0.467
same,glycan array binding signal (z-score),[35],1.42
same,glycan array binding signal (z-score),[36],-0.212
same,glycan array binding signal (z-score),[37],-0.43
same,glycan array binding signal (z-score),[38],-0.108
same,glycan array binding signal (z-score),[39],-0.583
same,glycan array binding signal (z-score),[40],0.367
same,glycan array binding signal (z-score),[41],-0.253
same,glycan array binding signal (z-score),[42],-0.383
same,glycan array binding signal (z-score),[43],4.18
